In PMC6919601, “Identification of Plasmodium dipeptidyl aminopeptidase allosteric inhibitors by high throughput screening” (PLoS ONE, 2019):
Where “and” joins values, the source holds several entries; their conditions need not be identical. Equal entries are not always repeated. The whole screen tested about 110,000 compounds, of which about 230 (0.21%) showed an effect of 50% or more. The list shows a part of the results.

Biological target: DPAP1 (Plasmodium falciparum, UniProt Q8IIJ9)
Assay: primary screen, percent inhibition; read by cleavage of a fluorogenic dipeptide substrate; higher = more effect of the substance
Design: species or system P. falciparum D10 trophozoite lysates; single well
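Note: 30 min substrate incubation versus DMSO and 10 µM JCP410 controls.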

Chain of DPAP1 (Q8IIJ9 whole entry, looked up): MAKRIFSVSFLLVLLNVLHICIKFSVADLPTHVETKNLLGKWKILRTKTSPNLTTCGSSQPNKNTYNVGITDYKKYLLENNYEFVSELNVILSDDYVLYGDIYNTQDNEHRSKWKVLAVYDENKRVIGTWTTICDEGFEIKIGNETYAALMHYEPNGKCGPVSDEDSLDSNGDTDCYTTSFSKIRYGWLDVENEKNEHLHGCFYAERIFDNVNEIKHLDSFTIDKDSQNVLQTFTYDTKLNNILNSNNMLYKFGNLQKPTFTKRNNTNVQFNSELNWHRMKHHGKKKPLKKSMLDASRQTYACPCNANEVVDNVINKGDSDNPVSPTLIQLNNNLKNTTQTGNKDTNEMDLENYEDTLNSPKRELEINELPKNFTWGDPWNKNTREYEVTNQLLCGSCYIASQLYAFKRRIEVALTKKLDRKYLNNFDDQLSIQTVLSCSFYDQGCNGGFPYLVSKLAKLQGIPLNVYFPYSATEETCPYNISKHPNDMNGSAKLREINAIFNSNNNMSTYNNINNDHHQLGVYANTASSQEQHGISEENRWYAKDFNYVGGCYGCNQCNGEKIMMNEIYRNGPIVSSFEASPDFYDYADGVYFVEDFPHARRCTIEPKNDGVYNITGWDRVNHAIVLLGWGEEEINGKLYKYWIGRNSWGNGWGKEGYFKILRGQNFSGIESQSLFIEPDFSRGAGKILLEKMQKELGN

SMILES	% Inhibition @ 10 uM
COc1ccc(-c2csc3nc4ccccc4n23)cc1	-4.01%
CCN1CCN(C(=O)c2ccc(CS(=O)c3ccc(C)cc3)o2)CC1 (centres unmarked)	-6.89%
COCc1nnc(NC(=O)CC(C)c2ccccc2)s1 (centres unmarked)	-5.2%
CC(=O)Nc1ccc(S(=O)(=O)N2CCN(C(=O)c3ccc(C)cc3)CC2)cc1	1.62%
CCC(C)N(C)c1ccc(NC(C)=O)cc1 (centres unmarked)	-1.36%
CCC(Sc1nc2nccnc2c(=O)n1Cc1ccccc1)C(=O)NC1CCCCC1 (centres unmarked)	-2.17%
O=C(CC(Nc1ccc2ncccc2c1)c1ccc(F)cc1)c1ccccc1 (centres unmarked)	-0.736%
CCOc1cc(S(=O)(=O)Nc2ccc(Cl)cn2)ccc1F	4.94%
CC(C)Oc1ccc(C(=O)NC2C3CC4CC(C3)CC2C4)cc1 (centres unmarked)	-4.56%
CCC(C)NC(=O)CSc1nnc(-c2ccc(OC)c(OC)c2)c(-c2ccc(OC)c(OC)c2)n1 (centres unmarked)	-0.251%
CC(C)C[C@@H](/C=C/S(C)(=O)=O)NC(=O)[C@@H](Cc1ccccc1)NC(=O)c1cnccn1	-1.5%
CC(C)(C)c1cc(-c2ccco2)c(C#N)c(S)n1	20.6%
COc1ccc2c(c1)Sc1ccccc1N2C(C)=O	1.96%
Cc1ccc(O)c(C(=O)CSc2ncc(-c3ccccc3)n2C)c1	3.66%
O=C(COc1ccccc1)N1CCN(c2cccc(Cl)c2)CC1	-3.74%
C=CCNc1nc(Cl)nc(N2CCCCC2)n1	-4.23%
CC1=C(C(=O)OCC(Cl)(Cl)Cl)C(c2ccc(O)cc2)NC(=O)N1 (centres unmarked)	4.35%
CC1OCC2C(CO1)C2(Cl)Cl (centres unmarked)	-5.28%
CCc1cc2c(NCCCC(=O)O)nc(C)nc2s1	-1.28%
CN1C(=O)/C(=C\c2ccc(OCC#N)cc2)S/C1=N/c1ccccc1	0.214%
CC(C)(C)c1ccc(OCCCCCN2CCCC2)cc1	-2.18%
O=C(NCc1cccnc1)c1nc(-c2ccc(Cl)cc2)n2c1CCCCC2	1.43%
O=C(Nc1ccc(F)c(Cl)c1)C1CC2CCC1C2 (centres unmarked)	3.29%
COc1ccccc1C(=O)CC(=O)c1ccccc1	0.674%
Cc1cc(C)c2oc(C(=O)N(Cc3ccc(C(C)(C)C)cc3)C3CCS(=O)(=O)C3)cc(=O)c2c1 (centres unmarked)	5.06%
CCC[C@@H](/C=C/S(=O)(=O)c1ccccc1)NC(=O)C1(NC(=O)N2CCN(C)CC2)CCCCC1	-8.26%

SMILES	% Inhibition @ 10 uM
Cc1ccc(-c2onc(C)c2C)cc1S(=O)(=O)NCc1cccnc1	-7.06%
CCOc1cccc(-c2nc(O)c3c(n2)Oc2ccc(Cl)cc2C3)c1O	6.98%
N#Cc1ccc(/C=C/c2ccc(F)cc2)cc1	-1.21%
COc1ccc(Br)cc1CNCCCSc1nnnn1C	-6.6%
O=C(OCC1CCS(=O)(=O)C1)c1ccccc1 (centres unmarked)	3.83%
O=c1[nH]c(=O)n(-c2ccc(Cl)cc2)c2c1C(C(F)(F)F)(C(F)(F)F)NC(c1ccncc1)=N2	-1.57%
COCCNC(=O)C1c2ccccc2C(=O)N(CC(C)C)C1c1cccs1 (centres unmarked)	-5.61%
Nc1c(-c2nc(-c3cccs3)no2)nnn1-c1ccccc1C(F)(F)F	-2.15%
CC(C)(C)[C@@H](NC(=O)OCc1ccccc1)C(=O)NCC#N	-3.14%
NC(=S)N/N=C/c1c(-c2ccccc2)[nH]c2ccccc12	4.86%
O=C(c1cc2ccccc2cc1O)N1N=C(C(F)F)CC1(O)C(F)F (centres unmarked)	0.687% and 2.64%
COc1ccc(S(=O)(=O)N(CC(=O)Nc2c(F)cccc2F)C2CCCCC2)cc1OC	-3.05%
Cc1ccc(C(=O)NC(=O)CSc2nccc(O)n2)cc1	7.25%
O=C(COc1cccc2ccccc12)Nc1ccc(S(=O)(=O)N2CCCCCC2)cc1	-2.03%
COc1ccc(-c2nnc3n2C(C)(C)Cc2cc(C)c(C)cc2-3)cc1	-2.35%
CC1CCN(S(=O)(=O)N2CCC(C(=O)NC3CCCCC3C)CC2)CC1 (centres unmarked)	0.387%
CCOc1cc(/C=C2/NC(=O)N(c3cccc(Cl)c3)C2=O)ccc1OCC(N)=O	-6.43%
CCOc1ccc2nc(NC(=O)c3ccc(C(=O)c4ccccc4)cc3)sc2c1	4.95%
CC1(C)CC(=O)C2=C(C1)OC1=C(C(=O)CC(C)(C)C1)C2c1ccccc1C(F)(F)F	3.74%
C=CCN(CC=C)S(=O)(=O)c1ccc(NC(=O)Nc2cccc(Cl)c2)cc1	1.83%
CN(C)CC/C=C1\c2cc(C(=O)O)ccc2CSc2ccccc21	-7.31%
CN(C)CCNC(=O)c1ccc(CN2CC(=O)N3CCCCC3C2=O)cc1 (centres unmarked)	3.21%
O=C(CSc1nc2c(c(C(F)(F)F)n1)CCc1ccccc1-2)NCc1cccnc1	2.46%
O=C(O)c1ccc(OCCn2ccnc2)cc1	7.87%
Cc1ccccc1OCc1nn2c(-c3ccccc3Cl)nnc2s1	-3.5%
O=C(CN1C(C(=O)c2ccccc2)=C(O)c2ccccc2S1(=O)=O)c1ccccc1	-4.43%

SMILES	% Inhibition @ 10 uM
CCC(C)c1c(O)nc(SCc2ccc(Cl)cc2)nc1O (centres unmarked)	37.6%
Cc1cc2n(n1)C(c1ccc(N3CCOCC3)cc1)Nc1c(C)cccc1-2 (centres unmarked)	0.83%
CC(=O)NC(C)(CC(=O)c1ccccc1)c1ccccc1 (centres unmarked)	-3.04%
COc1ccc(N(CC(=O)Nc2c(C)cccc2C)S(C)(=O)=O)cc1Cl	-5.13%
Cc1ccc(-c2nc(CSCc3csc(C)c3C)c(C)o2)cc1	12.5%
O=[N+]([O-])c1ccc(N2CCN(Cc3ccsc3)CC2)cc1	-5.41%
COC(=O)c1sccc1NC(=S)N1CCN(c2ccccn2)CC1	-2.74%
Cc1onc(-c2ccccc2Cl)c1C(=O)O	2.78%
COc1cc(C2=N/C(=C\c3ccc(C)o3)C(=O)O2)cc(OC)c1OC	-5.79%
COC(=O)c1ccc(NC(=O)C(Cc2ccccc2)N2C(=O)c3ccccc3C2=O)cc1 (centres unmarked)	14.4%
O=C(Nc1ccccc1)c1cccc(N2C(=O)C3C4C=CC(C4)C3C2=O)c1 (centres unmarked)	11.6%
CCOc1ccc2oc(=O)cc(CN3CCN(Cc4ccccc4F)CC3)c2c1	3.88%
CCc1ccc(NC(=O)CCOc2ccccc2)cc1	6.71%
CCOc1ccc(CN2CCN(Cc3cccc(Br)c3)CC2)cc1	-7.18%
CCOc1ccc(C(=O)CCNCCC(=O)O)cc1	44.5%
CS(=O)(=O)C1=NN2C(=N)/C(=C\c3ccc(OCc4ccccc4)cc3)C(=O)N=C2S1	-5.27%
COc1ccc(C(=O)N2C(C)CCCC2C)cc1OC (centres unmarked)	-6.82%
Cc1oc2c(CN(C)C)c(O)ccc2c(=O)c1-c1cnn(-c2ccccc2)c1	-4.39%
CC1CC(=O)C2=C(C1)OC(N)=C(C#N)C2c1cccc(Br)c1 (centres unmarked)	0.317%
CSc1cccc(NC(=O)C2CCN(S(C)(=O)=O)CC2)c1	-0.968%
CCC(C)(NC(=O)CN1C(=O)c2ccccc2C1=O)C(=O)Nc1c(C)cccc1C (centres unmarked)	-8.3%
CC1CCCN(CCCNc2c(-c3ccc(C(C)C)cc3)c(=O)c2=O)C1 (centres unmarked)	2.24%
CCCSC1=C(C#N)C(c2ccc(F)cc2)CC(=O)N1 (centres unmarked)	3.61%
Cc1[nH]c2ccccc2c1CN1CCN(c2ccc([N+](=O)[O-])cc2)CC1	-4.35%
CCOc1cc(CNCc2ccccc2)c(Cl)cc1OC	0.316%
COc1ccc(/C(C)=N/c2sc3c(c2C#N)CCCC3)cc1OC	13.5%

SMILES	% Inhibition @ 10 uM
CC(C)CCNC(=O)CCC(=O)n1ncc2cc(Cl)ccc21	-6.58%
O=C(O)c1ccc(Cc2ccc(C(=O)O)s2)o1	-1.76%
Oc1cccc2ccc(N3CCOCC3)nc12	1.9%
COc1cccc(C(=O)Nc2ccc(NC(=O)c3cccc(C)c3)cc2)c1	1.99%
Cc1nnc2c(N3CCC(C(=O)O)CC3)nc3ccccc3n12	4.47%
CCOc1cc(C2C(C#N)=C(N)Oc3[nH]nc(-c4ccc(OC)cc4)c32)cc(Br)c1O (centres unmarked)	-2.83%
CN(C)Cc1ccccc1C(O)c1ccccc1 (centres unmarked)	0.731%
O=C(Nc1cccc(N2C(=O)C3CCCCC3C2=O)c1)c1ccccc1 (centres unmarked)	9.82%
Cc1ccc(O)c(-c2[nH]nc3c2C(c2ccccc2F)N(Cc2cccnc2)C3=O)c1 (centres unmarked)	0.558%
COC(=O)CCSc1nccn1Cc1ccccc1	-3.66%
COc1cc(-c2noc(CCCC(=O)NC3CCCCC3)n2)cc(OC)c1OC	-2.92%
CCc1ccc(C(C)NC(=O)CC#N)cc1 (centres unmarked)	-1.65%
Cc1cc(Br)ccc1S(=O)(=O)NCc1ccccc1	-2.91%
O=C(NCc1ccco1)NC1CCCCC1	2.59%
O=C(C1CCCC1)N1CCc2[nH]ncc2C1	3.75%
N#C/C(=C\c1ccco1)c1nc(-c2ccc(Cl)cc2)cs1	4.63%
COc1ccc(OC)c(C2CC(=O)Nc3c2cc(Br)c2ccccc32)c1 (centres unmarked)	-6.36%
CC(C)(C)C(=O)Nc1cc(NC(=O)C(C)(C)C)cc(C(=O)Nc2ccccc2)c1	6.79%
CCOC(=O)c1c(NC(=O)c2sc3nc(N)c(C#N)cc3c2N)sc2c1CCC2	-1.68%
C=CC1CN2CCC1CC2[C@@H](OC(=O)C1CC1)c1ccnc2ccccc12 (some centres unmarked)	3.31%
COc1ccc(C(=O)Nc2ccc(Cl)cc2C(=O)Nc2cccnc2)cc1	1.03%
Cc1onc(-c2ccccc2Cl)c1C(=O)Nc1cccnc1	0.727%
Cc1ccc2oc(-c3ccc4c(c3)C(=O)N(C)C4=O)nc2c1	5.17%
